Screen size: about 4,800 compounds; about 420 (8.8%) showed an effect of 50% or more. The list shows a part of the results.
system: Plasmodium falciparum; experiment: Confirmatory screen in NF54 nanoGlo assay, in single point, at 2uM, 72h; assay type: functional, Erythrocyte; details: timepoint 72 hour

Going from `O=C(c1cn(CC2(O)CCN(Cc3ccccc3)CC2)nn1)N1CCCc2ccccc21` to `O=C(CN1C(=O)COc2ccccc21)N1CCC[C@H](c2nc3ccccc3s2)C1`, the “% Inhibition” value falls from 12% to -8%.

Going from `CC(C)C[C@]1(C)NC(=O)N(Cc2noc(-c3cccs3)n2)C1=O` to `CC[C@H](C)Oc1cccc(-c2nc(=O)c(CCC(=O)N3CCOCC3)n[nH]2)c1`, the “% Inhibition” value rises from -13% to 0%.

Compared with `O=c1c2ccccc2nc2cc(-c3ccc(O)cc3)c(-c3ccccc3)nn12`, `COC(=O)Nc1nc(-c2ccccc2)c(-c2nc3ccccc3c(=O)n2-c2ccc(OC)cc2)s1` is lower in “% Inhibition” value: 53% for the first, 5% for the second.

Compared with `O=C(CNc1ccc2ccccc2c1)Nc1ccc2c(c1)OCCCO2`, `O=C(Nc1ccc2c(c1)OCCCO2)c1ccsc1` is higher in “% Inhibition” value: 1% for the first, 6% for the second.

Compared with `Cc1ccc(S(=O)(=O)NC(C)C)c(C)c1`, `Cc1cnn(-c2ccncc2NS(C)(=O)=O)c1` is lower in “% Inhibition” value: -2% for the first, -15% for the second.

Going from `O=C(CS(=O)(=O)Cc1cc(Cl)c2c(c1)OCCCO2)NC1CCCCCC1` to `c1csc(CNC2CCCCCCC2)c1`, the “% Inhibition” value rises from -11% to -1%.

Going from `FC(F)(F)C(c1nc(Nc2nc(N3CCOCC3)nc(N3CCOCC3)n2)nc(C(C(F)(F)F)(C(F)(F)F)C(F)(F)F)n1)(C(F)(F)F)C(F)(F)F` to `Cc1ncsc1[C@@H]1CC(=O)Nc2nc(N3CCC(C)CC3)nc(O)c21`, the “% Inhibition” value falls from 10% to -7%.

Compared with `Cc1cccc2c1N(C(=O)[C@H]1CCS(=O)(=O)C1)CC2`, `CC1CC(c2ccccc2)CCN1C(=O)c1cc(C2CC2)on1` (stereo unspecified) is lower in “% Inhibition” value: 2% for the first, -5% for the second.

Compared with `CCc1cc(N2C[C@@H]3NC(=O)CN(C)Cc4ccc(OC)c(c4)Oc4cccc(c4)CO[C@H]3C2)nc(N(C)C)n1`, `COc1ccc2cc3n(c2c1)C[C@@](C)(C(=O)NC1CCCC1)N(Cc1ccc(F)cc1)C3=O` is lower in “% Inhibition” value: 60% for the first, 16% for the second.

Compared with `Nc1n[nH]c(N)c1Cc1cccc(Br)c1`, `Clc1cccc(COc2ccccc2CNc2nc[nH]n2)c1` is lower in “% Inhibition” value: -2% for the first, -4% for the second.

Going from `CCC1CN(CCCN2C(=O)CNC2=O)CCC1c1ccccc1` (stereo unspecified) to `Cn1ccnc1[C@@H]1CCCN1Cc1nccn1Cc1ccccc1`, the “% Inhibition” value rises from 0% to 45%.

First: C[C@H](NC(=O)c1ccco1)c1nc(-c2ccc(=O)n(C)c2)no1
Second: COc1ccc(-c2nc(-c3ccc(=O)n(C)c3)no2)c(OC)c1
The “% Inhibition” value of the first is higher: -3% for the first, -5% for the second.

Compared with `CCCCN(CC)c1ncc(C(=O)Nc2ccc(OCC)cc2)c(N)n1`, `COc1ccc(C(=O)n2[nH]c(=O)c(CCO)c2C)cc1` is lower in “% Inhibition” value: 27% for the first, -3% for the second.

Compared with `COc1ccc(CC(=O)NCCOCCO)cc1`, `O=C(O)Cc1ccc(OCc2nnc(-c3ccccc3)s2)cc1` is lower in “% Inhibition” value: 5% for the first, -4% for the second.

First: C#CCN(C(=O)c1ccncc1CC)c1nccs1
Second: CCC(C)(C)N(C)C(=O)c1ccccc1Cl
The “% Inhibition” value of the first is lower: -10% for the first, 1% for the second.

Going from `CCN(C[C@H](C)C#N)C(=O)C(=O)Nc1ccc(F)cc1Cl` to `CCOC(=O)CNc1ccc(F)c(Cl)c1`, the “% Inhibition” value falls from -5% to -6%.

Compared with `CCCN1CCN(C(=O)CN2CCCC2=O)c2ccc(F)cc21`, `Cc1c(N2CCN(C(=O)c3ccc(F)cc3)CC2)c(=O)n(C)c(=O)n1C` is lower in “% Inhibition” value: -2% for the first, -4% for the second.

Compared with `CC[C@@H](CO)NC(=O)Nc1ccc(F)cc1`, `Cc1c(C(=O)NC[C@](C)(O)c2ccc(F)cc2F)cnn1C` is higher in “% Inhibition” value: 3% for the first, 7% for the second.

First: O=C(CNC1=NC(=O)C(c2ccccc2)(c2ccccc2)N1)NCc1ccc(F)cc1
Second: O=C1CCCC1C(c1ccccc1)N(C1=NS(=O)(=O)c2ccccc21)c1ccccc1 (stereo unspecified)
The “% Inhibition” value of the first is higher: -1% for the first, -10% for the second.

First: CC(C)[C@@H](C(=O)Nc1ccc2c(c1)OCO2)N(Cc1cccnc1)C(=O)Cn1nnc2ccccc21
Second: COc1cccc(-c2nsc(C(=O)NCc3cccnc3)c2N)c1
The “% Inhibition” value of the first is lower: -9% for the first, 5% for the second.

`c1ccc(-c2cc3c(N4CCC4)ncnc3s2)cc1` and `c1ccc(-c2cccnc2NCc2cscn2)cc1` are the same in “% Inhibition” value: -6% for the first, -6% for the second.

Compared with `CN(C(=O)C1C(C(=O)O)C1(C)C)c1ccccc1OC(F)F` (stereo unspecified), `Cc1ccccc1CNC(=O)c1ccccc1NC(=O)C1CC=CCC1C(=O)O` (stereo unspecified) is higher in “% Inhibition” value: -2% for the first, 0% for the second.

`O=c1cc(-c2ccccc2)n(S(=O)(=O)c2ccccc2)o1` and `COc1cccc2c1OCC(=O)N([C@@H](C)c1ccccc1)C2` are the same in “% Inhibition” value: -8% for the first, -8% for the second.

Going from `Cc1ocnc1C(=O)N[C@H]1CCN(c2ccc(Cl)c(F)c2)C1=O` to `CCN1CC[C@H](NCc2ccc(OCCN3CCOCC3)c(Cl)c2)C1=O`, the “% Inhibition” value rises from -2% to 2%.

Compared with `CN(c1ccc(Cl)cn1)S(=O)(=O)c1ccc2ncccc2c1`, `COc1ccccc1C(=O)N(Cc1cccs1)c1ccc(C)c(Cl)c1` is higher in “% Inhibition” value: -22% for the first, -2% for the second.

Going from `COc1ccc(NC(=O)Cc2c(C)nn(-c3nc(C)cs3)c2O)c(OC)c1` to `Cc1cc2occ(CC(=O)N[C@@H](Cc3c[nH]c4cc(F)ccc34)C(=O)O)c2cc1C`, the “% Inhibition” value rises from -7% to -1%.

First: CC(C)n1nccc1N1C(=O)N[C@@H](CC(F)(F)F)C1=O
Second: NC(=O)C1CCN(C(=O)Nc2nc(C(F)(F)F)cs2)CC1
The “% Inhibition” value of the first is lower: 0% for the first, 5% for the second.

Going from `CCNC(=O)C[C@H]1CCCCN1C(=O)C1CCN(Cc2csc(C)n2)CC1` to `O=C(Cc1ccc(N(Cc2cccc(F)c2)C(=O)C2CCCC2)cc1)NCCN1CCCCC1`, the “% Inhibition” value rises from -1% to 54%.

Compared with `Cc1nn(C)cc1C(=O)N1CCN(c2nncc3ccccc23)CC1`, `C[C@H]1CNCCN1C(=O)c1coc2ccccc12` is higher in “% Inhibition” value: -18% for the first, -4% for the second.

Compared with `CC1(C)Oc2ccc(NC(=O)c3ccco3)cc2NC1=O`, `Cc1sc(NC(=O)c2ccccc2Cl)nc1-c1ccc2c(c1)NC(=O)[C@H](C)O2` is higher in “% Inhibition” value: -2% for the first, 4% for the second.

`CCN(CC)C(=O)N1CCC[C@@H]1CCc1ncc(C)n1C(C)C` and `Cc1c(S(=O)(=O)N2CC3CN(c4ccccc4)CC3C2)cnn1C` (stereo unspecified) are the same in “% Inhibition” value: 5% for the first, 5% for the second.

First: O=C1CCc2cc(NC(=O)[C@@H]3Cc4ccccc4C(=O)O3)ccc2N1
Second: Cc1c(C)n(CCc2c[nH]c3ccccc23)ccc1=O
The “% Inhibition” value of the first is lower: -4% for the first, 2% for the second.

Going from `COC(=O)c1cc(Cl)c(Cl)cc1N` to `CC(C)(C)CC(C)(C)NC(=O)c1ccc2nc(N3C(=O)CCC3=O)sc2c1`, the “% Inhibition” value rises from -6% to -1%.
